Results reported in PubChem BioAssay AID488969 (Vanderbilt High Throughput Screening Facility, 2010).
Whole data set: some 110,000 compounds, median “z-score” near -0.1, cut for the highest 2% near 2. The list shows a part of the results. Active and inactive are the calls of the source.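 Rule for the calls: active = z-score in the third read window above 3 or below -3; inactive = the rest.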

The compounds below were run against Metabotropic glutamate receptor 8 (Rattus norvegicus) (UniProt P70579) (assay: rat mGluR8 modulators via GIRK flux, primary screen, cell-based, thallium flux, HTS (AID 488969)). Details: HEK293 rat mGluR8, GIRK (G protein-gated inwardly rectifying potassium channel) thallium flux, FluoZin2; at 10 µM; stronger effect = higher value; submaximal glutamate (EC20) added with thallium.
UniProt P70579, sequence (P70579 whole entry, looked up): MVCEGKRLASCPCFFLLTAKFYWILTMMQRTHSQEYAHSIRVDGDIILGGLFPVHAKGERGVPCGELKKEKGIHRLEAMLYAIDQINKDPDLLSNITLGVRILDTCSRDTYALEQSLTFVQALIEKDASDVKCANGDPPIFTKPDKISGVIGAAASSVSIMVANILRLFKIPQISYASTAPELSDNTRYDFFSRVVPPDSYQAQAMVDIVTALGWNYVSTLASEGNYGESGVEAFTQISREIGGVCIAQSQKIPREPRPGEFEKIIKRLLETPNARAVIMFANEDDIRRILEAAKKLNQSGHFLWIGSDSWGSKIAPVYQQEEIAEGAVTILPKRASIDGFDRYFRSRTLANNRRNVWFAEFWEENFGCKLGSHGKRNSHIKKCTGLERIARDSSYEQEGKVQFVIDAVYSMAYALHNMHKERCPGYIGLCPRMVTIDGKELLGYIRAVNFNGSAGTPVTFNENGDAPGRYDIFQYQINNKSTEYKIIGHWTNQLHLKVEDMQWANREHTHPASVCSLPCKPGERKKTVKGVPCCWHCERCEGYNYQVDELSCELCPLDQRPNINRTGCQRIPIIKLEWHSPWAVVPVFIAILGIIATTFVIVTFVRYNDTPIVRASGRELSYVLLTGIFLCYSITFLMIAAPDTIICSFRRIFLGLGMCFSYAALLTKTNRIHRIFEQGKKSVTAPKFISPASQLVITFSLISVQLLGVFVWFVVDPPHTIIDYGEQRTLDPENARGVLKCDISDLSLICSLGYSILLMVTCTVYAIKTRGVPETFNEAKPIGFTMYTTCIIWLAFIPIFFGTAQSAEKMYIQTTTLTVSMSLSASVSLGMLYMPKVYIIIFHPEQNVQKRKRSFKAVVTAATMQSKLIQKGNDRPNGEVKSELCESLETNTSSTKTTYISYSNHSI

Row | Compound | z-score
1 | CC(C)(C)n1nnnc1CN1CCN(C2CCCC2)CC1 | -0.495
2 | O=C(O)c1cc(Cl)ccc1NC(=O)C1CCCO1 (centres undefined) | -0.0571
3 | O=C(CNC(=O)c1ccc([N+](=O)[O-])cc1)N/N=C\c1ccc(OC(=O)c2ccccc2)cc1 | 0.0901
4 | O=C(Cc1ccc(Cl)cc1)NCCCn1ccnc1 | -0.134
5 | CCC(C)c1ccc(OCCN2CCCC2)cc1 (centres undefined) | 0.208
6 | O=C(CN1C(=O)C2CC=CCC2C1=O)NCc1ccc2c(c1)OCO2 (centres undefined) | -0.142
7 | Cn1c(=O)c2[nH]c(CN3CCN(Cc4ccccc4)CC3)nc2n(C)c1=O | -0.0138
8 | O=C(NCC1CCCO1)c1ccc(NC(=O)C2CCCCC2C(=O)O)cc1 (centres undefined) | 0.533
9 | Brc1ccc2c(c1)C(c1ccc(N3CCOCC3)cc1)=NNC(c1cccs1)=N2 | -0.0732
10 | COc1ccccc1OC(=O)C1CC(=O)N(c2ccc(Cl)cc2)C1 (centres undefined) | -1.67
11 | O=C(NCc1ccncc1)c1cccc(Cn2cc(Br)cn2)c1 | -0.499
12 | CCCc1cc(=O)[nH]c(SCCOc2ccc(Cl)cc2)n1 | 0.253
13 | O=C(O)c1cc(NC(=O)C2CCCO2)cc(NC(=O)C2CCCO2)c1 (centres undefined) | -0.51
14 | O=C1c2ccccc2C(=O)N1Cc1cc(-c2ccccc2)no1 | -0.334
15 | CCN1CCN(C2=NC(=O)/C(=C/c3ccc(C)o3)S2)CC1 | 0.0216
16 | C(=N/N1CCN(c2ccccc2)CC1)/c1cccs1 | -0.201
17 | O=C(O)[C@H]1CCCC[C@H]1C(=O)NCCc1ccccc1 | 0.402
18 | COc1ccc(OC)c(NC(=O)C(=O)NCc2ccncc2)c1 | -0.232
19 | Cc1cccc(CSc2ccc3nnc(-c4cccs4)n3n2)c1 | -0.315
20 | Cc1ccc2sc(C)[n+](CCC(C)S(=O)(=O)[O-])c2c1 (centres undefined) | -0.433
21 | O=C(CC(=O)c1ccccc1)Nc1cccnc1Cl | -0.127
22 | COC(=O)Cn1cccc1C(=O)c1ccccc1 | 0.887
23 | CCc1ccc(NC(=O)CCN2C(=O)c3cccnc3C2=O)cc1 | 0.184

Row | Compound | z-score
24 | CCC(CC)C(=O)NCCCCc1ccccc1 | -0.508
25 | CC1CCCCC1NC(=O)NC(=O)CCl (centres undefined) | 0.0149
26 | CC1(C)CCCC(C)(C)N1CC(O)COCCOc1ccc(Br)cc1 (centres undefined) | 1.04
27 | CCCNc1nc(N2CCOCC2)nc(N2CCOCC2)n1 | -0.0765
28 | O=C(CSc1ccc(-c2ccccc2)nn1)N1CCN(c2ccccc2)CC1 | -0.171
29 | COc1ccccc1CNC(=O)c1cccc(C)c1[N+](=O)[O-] | -0.24
30 | OC(COc1ccc2ccccc2c1)Cn1cncn1 (centres undefined) | 0.189
31 | COc1cccc(-n2nc(C(=O)N3CC(C)CC(C)C3)c3ccccc3c2=O)c1 (centres undefined) | -0.198
32 | Cc1ccc(-c2nc(NC(=O)CSc3nnc(C)s3)ns2)cc1 | -0.118
33 | CCOC(=O)N1CCN(C(=O)c2cc(Cl)c(Cl)cc2C(=O)O)CC1 | -0.119
34 | CCn1c(-c2cccnc2)n[nH]c1=S | -0.235
35 | COc1cccc(-c2csc(N3CCN(C(=S)Nc4ccccc4)CC3)n2)c1 | 0.146
36 | COc1ccc(CN(C(=O)CSc2nnc(-c3ccccc3F)o2)c2ccc(F)cc2)cc1 | -0.681
37 | O=C(C1CCCN(c2nnc(-n3cccc3)s2)C1)N1CCN(c2ccccc2)CC1 (centres undefined) | -0.457
38 | CC(C)(C)S(=O)(=O)c1ccc(S(=O)(=O)C(C)(C)C)s1 | 2.32
39 | COc1ccc(OC)c(C2C(C(=O)c3sc(C)nc3C)=C(O)C(=O)N2CCN2CCOCC2)c1 (centres undefined) | -0.441
40 | CCCSc1nc(C)cc(C)c1C(N)=O | 0.484
41 | CN1CCN(S(=O)(=O)c2ccc(N3CCN(S(=O)(=O)c4cccs4)CC3)nc2)CC1 | 0.377
42 | CCOc1ccc(-c2csc(C3COc4ccccc4O3)n2)cc1 (centres undefined) | -0.23
43 | Cc1cccc(C2(c3cccc(C)c3)OC(=O)c3ccccc32)c1 | 0.252
44 | COc1ccc(Cl)cc1N(C)C(=O)CCc1nc(-c2ccc(C)cc2)no1 | 0.139
45 | COc1ccc(Cl)cc1C(=O)Nc1ccc(S(=O)(=O)N2CCCC2)cc1 | -0.163
46 | CCCCNCc1cc(Cl)c(OCCC)c(OCC)c1 | 1.14

Row | Compound | z-score
47 | CCC(c1nnnn1Cc1ccco1)N(CCN1CCOCC1)Cc1cc2cc(C)ccc2[nH]c1=O (centres undefined) | -0.764
48 | CN(c1cccc(NC(=O)Nc2cccc(Cl)c2)c1)S(C)(=O)=O | -1.05
49 | Cc1ccc(OCCCN2CCOCC2)c([N+](=O)[O-])c1 | -0.202
50 | Cn1c(=O)c2c(nc(NCCc3ccccc3)n2Cc2ccc(F)cc2)n(C)c1=O | -0.233
51 | COc1cc2cc(C(N)=O)c(N)nc2cc1OC | -0.0702
52 | COc1ccc(S(=O)(=O)Nc2cc3c4c(oc3c3ccccc23)CCCC4=O)cc1 | -0.141
53 | Cc1c(NC(=O)c2c(F)cccc2F)c(=O)n(-c2ccccc2)n1C | -0.117
54 | CCc1ccc(NC(=O)Cc2ccc(OC)cc2)cc1 | -0.203
55 | Cc1ccccc1OCC(O)CN1CCN(CCN2C(=O)c3cccc4cccc(c34)C2=O)CC1 (centres undefined) | 0.843
56 | C/C(=N\NC(=O)CSCc1cccc(Br)c1)c1ccc([N+](=O)[O-])cc1 | 0.0921
57 | COc1ccc(C)cc1NC(=O)CCCN1C(=S)NC(C)(C)CC1C (centres undefined) | -0.595
58 | CCOC(=O)c1cnc(SC)nc1Nc1cccc2ccccc12 | -0.0786
59 | CN(Cc1nc(-c2ccccn2)no1)S(=O)(=O)c1ccccc1 | 0.122
60 | CCCc1[nH]c(=O)c(C#N)c2c1COC(C)(C)C2 | 0.352
61 | Cn1nnnc1SCC(=O)N1CCN(C(c2ccccc2)c2ccccc2)CC1 | -0.46
62 | CC(CNC(=O)COc1ccccc1)OC(=O)Nc1cccc(Cl)c1 (centres undefined) | -0.268
63 | COc1cccc(Cn2nnc(C(=O)NCCc3ccc(Cl)cc3)c2N)c1 | 0.0599
64 | COc1cc(C(=O)OCC(=O)Nc2ccc(F)cc2F)cc(OC)c1OC | 0.1
65 | O=C(COc1ccc(Cl)cc1)N(Cc1ccccc1)c1nc(-c2ccccc2)cs1 | -0.0577
66 | CC(C)(C)SCCNC(=O)COc1ccccc1 | 0.707
67 | O=C1C2CCCN2C(c2ccccc2F)N1c1ccc(F)cc1 (centres undefined) | -0.00798
68 | CO/N=C(/CS(=O)c1ccc(Br)cc1)c1ccc(OC)cc1 (centres undefined) | -0.0555
69 | COc1cc2nc(CN(CCC(C)C)Cc3nc4cc(OC)c(OC)cc4c(=O)[nH]3)[nH]c(=O)c2cc1OC | -0.253

Row | Compound | z-score
70 | Cc1cc(NC(=O)C2(c3ccccc3)CCCC2)no1 | -0.898
71 | CCOC(=O)c1cnc(Nc2nc3ccccc3o2)nc1CN1CCN(C)CC1 | -0.276
72 | O=C(NCc1cccnc1)c1cc(-c2ccco2)on1 | 0.308
73 | O=c1c2ccccc2[nH]c(=S)n1CCCN1CCOCC1 | 0.0674
74 | O=C(CSc1nnnn1-c1ccccc1)N1CCc2ccccc2C1 | -0.487
75 | COc1cccc(N/C(SCc2ccccc2F)=C(/C#N)C(=O)NCc2cccs2)c1 | -0.192
76 | CCN(C1CCCCC1)S(=O)(=O)c1cc(C)ccc1OC | -0.44
77 | CCCC(=O)NNc1c2ccccc2nc2ccccc12 | -0.0977
78 | COc1cc(C)ccc1OCCCOc1ccccc1Cl | -0.109
79 | COc1cccc(-n2c(Cc3cc(=O)[nH]c(=O)[nH]3)nnc2SCC(=O)N2CCC(C)CC2)c1 | -0.226
80 | O=C(COC(=O)CCc1c[nH]c2ccccc12)NC(c1ccccc1)c1ccccc1 | -0.181
81 | COc1ccccc1-n1c(C)cc(C=O)c1C | 0.251
82 | CCOC(=O)Cc1csc(NC(=O)CSc2nnnn2-c2ccc(C)c(C)c2)n1 | 0.0467
83 | CCOC(=O)N1CCC(=NNC(=O)COc2ccc(C#N)cc2)CC1 | -0.197
84 | COC(=O)CCC(=O)NC(=S)Nc1sc(C)c(C)c1C(N)=O | -0.201
85 | O=C(COC(=O)c1cncc(Br)c1)NCc1ccco1 | 0.135
86 | Cc1cccc(NC(=O)Cn2c(=O)n(C)c3ccccc32)c1 | 0.24
87 | Clc1ccc(-c2ccc(C=Nc3ccc(N4CCOCC4)cc3)o2)cc1 | -0.0828
88 | Cc1ccc(-n2c(SCC(=O)NCc3ccco3)nc3c(sc4ccccc43)c2=O)cc1 | -0.175
89 | COc1ccccc1NC(=S)N1CCc2cc(OC)c(OC)cc2C1 | -0.933
90 | COc1ccc(-c2nnc(NC(=O)C3=COCCO3)o2)cc1 | 0.731
91 | Fc1ccc(CSc2ncnc3sc4c(c23)CCCC4)cc1 | -0.0403
92 | CC1(C)C2CCC1(C)C(OCC[N+](C)(C)CC(=O)OC1CCCCC1)C2 (centres undefined) | 0.441

Row | Compound | z-score
93 | CCN(CC)CCNC(=O)CCc1nn(C)c(=O)c2ccccc12 | 0.0546
94 | CN(C)c1cccc(C(=O)OC(C(=O)Nc2ccc(Cl)cc2C(F)(F)F)c2ccccc2)c1 (centres undefined) | -0.13
95 | CCc1ccc(NC(=O)CSc2nnc(-c3cccs3)n2CC)cc1 | -0.444
96 | COc1ccccc1C(=O)N/C(=C/c1ccc(Br)cc1)C(=O)NCC(=O)O | -0.161
97 | COc1cccc(C2CC(C(F)(F)F)n3ncc(C(=O)NCc4ccco4)c3N2)c1 (centres undefined) | -0.434
98 | O=c1nc2n(c3cc(Cl)c(S(=O)(=O)N4CCOCC4)cc13)CCCCC2 | -0.49
99 | C#CCSc1nncn1C(=O)/C=C/c1ccccc1 | -0.494
100 | COc1ccc(CNS(=O)(=O)c2cc(OCC(N)=O)c(C)cc2Cl)cc1 | -0.146
101 | O=C(COc1ccc(/C=N/NC(=O)C(=O)N2CCCCCC2)cc1)Nc1ccccc1Cl | -0.237
102 | Cn1c(CO)cnc1SCc1ccccc1 | -0.114
103 | COc1cc(OC)cc(C(=O)Nc2nc(-c3ccccc3)c(-c3ccccc3)o2)c1 | active: 3.64
104 | O=C(CCCCl)NC(=S)Nc1cc(C(F)(F)F)ccc1N1CCOCC1 | 0.012
105 | CSc1nc2nccc(/C=C\c3ccccc3)n2n1 | -0.423
106 | S=C(NC12CC3CC(CC(C3)C1)C2)N1CCCC1 | -0.0857
107 | O=C1c2ccccc2CCC1C(O)c1ccccn1 (centres undefined) | 0.411
108 | Cc1c(NC(=O)CSc2nnnn2Cc2ccccc2)c(=O)n(-c2ccccc2)n1C | 0.0435
109 | C=CCSC1=N/C(=C\c2sccc2C)C(=O)S1 | 0.0432
110 | Cc1ccc(Cn2cccc(-c3nc4ccccc4s3)c2=O)cc1 | 0.0523
111 | N#C/C(C(=O)N1CCCCC1)=C1\Nc2ccccc2S1 | 0.512
112 | Clc1ccccc1-c1nnc2sc(-c3ccc4c(c3)OCO4)nn12 | active: -4.26
113 | Cc1ccccc1N1CC(=O)N(c2ccccc2C)CC1=O | -0.0643
114 | CN(CC(=O)N1CCCC1)S(=O)(=O)c1ccc(Cl)cc1 | -0.073
